These results are taken from the supplement of paper PMC4604168 (melanoma cell lines).

Some of the results follow. Single values are uncertain, as repeats are few or missing.
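Also: cell number obtained by counting DAPI-stained nuclei in high-throughput microscope images with image analysis software, screen run in 1,536-well plates.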

This test relates to A2058. Description: cell count relative to DMSO control; melanoma cells; higher = more viable cells. To be noted: library dose: low library concentration; 72 h.
In turn, `CC(=O)c1c(C)c2cnc(Nc3ccc(N4CCNCC4)cn3)nc2n(C2CCCC2)c1=O` [palbociclib] + O=c1cc(-c2cccc3c2Sc2ccccc2S3)oc(N2CCOCC2)c1 [KU55933] (first compound 0.04 µM, partner dose 1 µM) had a cell count of 102%. With `CC(=O)c1c(C)c2cnc(Nc3ccc(N4CCNCC4)cn3)nc2n(C2CCCC2)c1=O` [palbociclib] + Cc1cc([N+](=O)[O-])ccc1NS(=O)(=O)c1cc(Cl)ccc1Cl [FH535] (first compound 0.04 µM, partner dose 1 µM) the figure was 89%. Regarding `Nc1ncn([C@H]2C[C@H](O)[C@@H](CO)O2)c(=O)n1` [decitabine] + CCCCCCCCCCCC1=C(O)C(=O)C=C(O)C1=O [Embelin] (first compound 0.1 µM, partner dose 1.2 µM), the cell count is 90.1%. `Nc1ccn([C@@H]2O[C@H](CO)[C@@H](O)C2(F)F)c(=O)n1` [gemcitabine] + CCCCCCCCCCCC1=C(O)C(=O)C=C(O)C1=O [Embelin] (first compound 0.0004 µM, partner dose 1.2 µM): the cell count turned out to be 94.6%. Next, `Nc1nc(F)nc2c1ncn2[C@@H]1O[C@H](CO)[C@@H](O)[C@@H]1O` [fludarabine] + CC(C)CCN1c2nc(Nc3cc(F)c(O)c(F)c3)ncc2N(C)C(=O)C1C [BID1870] (first compound 0.2 µM, partner dose 0.2 µM): 82%; `CO[C@H]1C[C@@H]2CC[C@@H](C)[C@@](O)(O2)C(=O)C(=O)N2CCCC[C@H]2C(=O)O[C@H]([C@H](C)C[C@@H]2CC[C@@H](OCCO)[C@H](OC)C2)CC(=O)[C@H](C)/C=C(\C)[C@@H](O)[C@@H](OC)C(=O)[C@H](C)C[C@H](C)/C=C/C=C/C=C/1C` [everolimus] + COc1ccc(-c2ccc3c(N4CCOCC4)nc(N4C[C@@H](C)O[C@@H](C)C4)nc3n2)cc1CO [KU0063794] (first compound 0.02 µM, partner dose 0.02 µM): 63.5%. With `CC(=O)O[C@@]12CO[C@@H]1C[C@H](O)[C@@]1(C)C(=O)[C@H](O)C3=C(C)[C@@H](OC(=O)[C@H](O)[C@@H](NC(=O)OC(C)(C)C)c4ccccc4)C[C@@](O)([C@@H](OC(=O)c4ccccc4)[C@H]21)C3(C)C` [Docetaxel] + CCN(CC)CCCCNc1ncc2cc(-c3cc(OC)cc(OC)c3)c(NC(=O)NC(C)(C)C)nc2n1 [PD173074] (first compound 0.0001 µM, partner dose 0.1 µM) the figure was 19.2%; with `Nc1nc(F)nc2c1ncn2[C@@H]1O[C@H](CO)[C@@H](O)[C@@H]1O` [fludarabine] + CN(NC(=O)CC(=O)NN(C)C(=S)c1ccccc1)C(=S)c1ccccc1 [STA4783] (first compound 0.2 µM, partner dose 0.006 µM), 84.1%; with `Nc1ncn([C@H]2C[C@H](O)[C@@H](CO)O2)c(=O)n1` [decitabine] + c1cc(-c2cnn3cc(-c4ccc(OCCN5CCCCC5)cc4)cnc23)ccn1 [Dorsomorphin] (first compound 0.1 µM, partner dose 0.4 µM), 78.1%. As to `CC(=O)c1c(C)c2cnc(Nc3ccc(N4CCNCC4)cn3)nc2n(C2CCCC2)c1=O` [palbociclib] + COc1cc(N2CCC(N3CCN(C)CC3)CC2)ccc1Nc1ncc(Cl)c(Nc2ccccc2S(=O)(=O)C(C)C)n1 [NVP-TAE684] (first compound 0.04 µM, partner dose 0.08 µM), the cell count was found to be 81%. Next, `CC(=O)O[C@@]12CO[C@@H]1C[C@H](O)[C@@]1(C)C(=O)[C@H](O)C3=C(C)[C@@H](OC(=O)[C@H](O)[C@@H](NC(=O)OC(C)(C)C)c4ccccc4)C[C@@](O)([C@@H](OC(=O)c4ccccc4)[C@H]21)C3(C)C` [Docetaxel] + CCCCCCCCCCCC1=C(O)C(=O)C=C(O)C1=O [Embelin] (first compound 0.0001 µM, partner dose 1.2 µM): 9.91%.

As for `Nc1nc(F)nc2c1ncn2[C@@H]1O[C@H](CO)[C@@H](O)[C@@H]1O` [fludarabine] + NCC(=O)Nc1ccc(-n2nc(C(F)(F)F)cc2-c2ccc3c(ccc4ccccc43)c2)cc1 [OSU03012] (first compound 0.2 µM, partner dose 1 µM), the cell count came out at 83.3%. As for `Nc1ccn([C@@H]2O[C@H](CO)[C@@H](O)C2(F)F)c(=O)n1` [gemcitabine] + COc1cc(Nc2ncc(F)c(Nc3ccc4c(n3)NC(=O)C(C)(C)O4)n2)cc(OC)c1OC [Tamatinib] (first compound 0.0004 µM, partner dose 0.4 µM), the cell count came out at 75.9%. Next, `Nc1nc(F)nc2c1ncn2[C@@H]1O[C@H](CO)[C@@H](O)[C@@H]1O` [fludarabine] + COc1cc(N2CCC(N3CCN(C)CC3)CC2)ccc1Nc1ncc(Cl)c(Nc2ccccc2S(=O)(=O)C(C)C)n1 [NVP-TAE684] (first compound 0.2 µM, partner dose 0.08 µM): 84.7%. Next, `Nc1ncn([C@H]2C[C@H](O)[C@@H](CO)O2)c(=O)n1` [decitabine] + COc1cc(Nc2ncc(F)c(Nc3ccc4c(n3)NC(=O)C(C)(C)O4)n2)cc(OC)c1OC [Tamatinib] (first compound 0.1 µM, partner dose 0.4 µM): 73.3%.

Compound `Nc1ccn([C@@H]2O[C@H](CO)[C@@H](O)C2(F)F)c(=O)n1` [gemcitabine] + Cc1ccc(NC(=O)c2cccc(N(C)C)c2)cc1NC(=O)c1ccc(O)cc1 [ZM336372] (first compound 0.0004 µM, partner dose 2 µM) had a cell count of 101%. With `Nc1ncn([C@H]2C[C@H](O)[C@@H](CO)O2)c(=O)n1` [decitabine] + NCC(=O)Nc1ccc(-n2nc(C(F)(F)F)cc2-c2ccc3c(ccc4ccccc43)c2)cc1 [OSU03012] (first compound 0.1 µM, partner dose 1 µM) the figure was 95.6%.
